Numbering of substitutions follows the chain as printed; changes in the protein carry UniProt numbers. The list shows a part of the results.
T1: RBFOX1 RRM RbFoxmut (Fox-RRM*) (Homo sapiens, UniProt Q9NWB1 109-208, R118D;E147R;N151S;E152T)
T1 sequence: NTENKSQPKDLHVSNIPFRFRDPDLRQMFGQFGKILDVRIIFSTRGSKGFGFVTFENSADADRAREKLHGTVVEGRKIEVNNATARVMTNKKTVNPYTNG

B1: GACUGAC (DNA:RNA)
RNA: GGGAGACCGGAAUUCAGAUUGUCCGACUGACUUAAAUCCCGUCGUAGCCACCA
DNA 1: CAATCTGAATTCCGGTCTCCC
DNA 2: TGGTGGCTACGACGGGATT
B2: AAGCAAA (DNA:RNA)
RNA: B1 RNA with G25A, C27G, U28C, G29A, C31A
DNA 1: CAATCTGAATTCCGGTCTCCC
DNA 2: TGGTGGCTACGACGGGATT
B3: GUGCAUC (DNA:RNA)
RNA: B1 RNA with A26U, C27G, U28C, G29A, A30U
DNA 1: CAATCTGAATTCCGGTCTCCC
DNA 2: TGGTGGCTACGACGGGATT
B4: AAACGCG (DNA:RNA)
RNA: B1 RNA with G25A, C27A, U28C, A30C, C31G
DNA 1: CAATCTGAATTCCGGTCTCCC
DNA 2: TGGTGGCTACGACGGGATT
B5: UCUUGCU (DNA:RNA)
RNA: B1 RNA with G25U, A26C, C27U, A30C, C31U
DNA 1: CAATCTGAATTCCGGTCTCCC
DNA 2: TGGTGGCTACGACGGGATT
B6: UAUAAGG (DNA:RNA)
RNA: B1 RNA with G25U, C27U, U28A, G29A, A30G, C31G
DNA 1: CAATCTGAATTCCGGTCTCCC
DNA 2: TGGTGGCTACGACGGGATT
B7: GGGUAGU (DNA:RNA)
RNA: B1 RNA with A26G, C27G, G29A, A30G, C31U
DNA 1: CAATCTGAATTCCGGTCTCCC
DNA 2: TGGTGGCTACGACGGGATT
B8: AAGUAUU (DNA:RNA)
RNA: B1 RNA with G25A, C27G, G29A, A30U, C31U
DNA 1: CAATCTGAATTCCGGTCTCCC
DNA 2: TGGTGGCTACGACGGGATT
B9: GAGUCUU (DNA:RNA)
RNA: B1 RNA with C27G, G29C, A30U, C31U
DNA 1: CAATCTGAATTCCGGTCTCCC
DNA 2: TGGTGGCTACGACGGGATT
B10: GAAGUAC (DNA:RNA)
RNA: B1 RNA with C27A, U28G, G29U
DNA 1: CAATCTGAATTCCGGTCTCCC
DNA 2: TGGTGGCTACGACGGGATT
B11: GGGGGUA (DNA:RNA)
RNA: B1 RNA with A26G, C27G, U28G, A30U, C31A
DNA 1: CAATCTGAATTCCGGTCTCCC
DNA 2: TGGTGGCTACGACGGGATT
B12: ACUUAGC (DNA:RNA)
RNA: B1 RNA with G25A, A26C, C27U, G29A, A30G
DNA 1: CAATCTGAATTCCGGTCTCCC
DNA 2: TGGTGGCTACGACGGGATT
B13: GCCUGUC (DNA:RNA)
RNA: B1 RNA with A26C, A30U
DNA 1: CAATCTGAATTCCGGTCTCCC
DNA 2: TGGTGGCTACGACGGGATT
B14: ACUAUUU (DNA:RNA)
RNA: GGGAGACCGGAAUUCAGAUUGUCCACUAUUUUUAAAUCCCGUCGUAGCCACCA
DNA 1: CAATCTGAATTCCGGTCTCCC
DNA 2: TGGTGGCTACGACGGGATT
B15: ACUGUCG (DNA:RNA)
RNA: B14 RNA with A28G, U30C, U31G
DNA 1: CAATCTGAATTCCGGTCTCCC
DNA 2: TGGTGGCTACGACGGGATT
B16: AACCCAC (DNA:RNA)
RNA: B1 RNA with G25A, U28C, G29C
DNA 1: CAATCTGAATTCCGGTCTCCC
DNA 2: TGGTGGCTACGACGGGATT
B17: UGACAGC (DNA:RNA)
RNA: B1 RNA with G25U, A26G, C27A, U28C, G29A, A30G
DNA 1: CAATCTGAATTCCGGTCTCCC
DNA 2: TGGTGGCTACGACGGGATT
B18: CAACGUU (DNA:RNA)
RNA: B14 RNA with A25C, C26A, U27A, A28C, U29G
DNA 1: CAATCTGAATTCCGGTCTCCC
DNA 2: TGGTGGCTACGACGGGATT
B19: UCGAUAA (DNA:RNA)
RNA: B14 RNA with A25U, U27G, U30A, U31A
DNA 1: CAATCTGAATTCCGGTCTCCC
DNA 2: TGGTGGCTACGACGGGATT
B20: GACCUGG (DNA:RNA)
RNA: B1 RNA with U28C, G29U, A30G, C31G
DNA 1: CAATCTGAATTCCGGTCTCCC
DNA 2: TGGTGGCTACGACGGGATT
B21: CAGUGCC (DNA:RNA)
RNA: B1 RNA with G25C, C27G, A30C
DNA 1: CAATCTGAATTCCGGTCTCCC
DNA 2: TGGTGGCTACGACGGGATT
B22: UCCACGC (DNA:RNA)
RNA: B14 RNA with A25U, U27C, U29C, U30G, U31C
DNA 1: CAATCTGAATTCCGGTCTCCC
DNA 2: TGGTGGCTACGACGGGATT
B23: AUAUUUG (DNA:RNA)
RNA: B14 RNA with C26U, U27A, A28U, U31G
DNA 1: CAATCTGAATTCCGGTCTCCC
DNA 2: TGGTGGCTACGACGGGATT
B24: ACCAGAA (DNA:RNA)
RNA: B14 RNA with U27C, U29G, U30A, U31A
DNA 1: CAATCTGAATTCCGGTCTCCC
DNA 2: TGGTGGCTACGACGGGATT
B25: GAAGUCC (DNA:RNA)
RNA: B1 RNA with C27A, U28G, G29U, A30C
DNA 1: CAATCTGAATTCCGGTCTCCC
DNA 2: TGGTGGCTACGACGGGATT
B26: CAUUCCC (DNA:RNA)
RNA: B1 RNA with G25C, C27U, G29C, A30C
DNA 1: CAATCTGAATTCCGGTCTCCC
DNA 2: TGGTGGCTACGACGGGATT
B27: ACUCAUG (DNA:RNA)
RNA: B14 RNA with A28C, U29A, U31G
DNA 1: CAATCTGAATTCCGGTCTCCC
DNA 2: TGGTGGCTACGACGGGATT
B28: CGUUAAG (DNA:RNA)
RNA: B1 RNA with G25C, A26G, C27U, G29A, C31G
DNA 1: CAATCTGAATTCCGGTCTCCC
DNA 2: TGGTGGCTACGACGGGATT
B29: CAGUAGG (DNA:RNA)
RNA: B1 RNA with G25C, C27G, G29A, A30G, C31G
DNA 1: CAATCTGAATTCCGGTCTCCC
DNA 2: TGGTGGCTACGACGGGATT
B30: CCGCAAG (DNA:RNA)
RNA: B14 RNA with A25C, U27G, A28C, U29A, U30A, U31G
DNA 1: CAATCTGAATTCCGGTCTCCC
DNA 2: TGGTGGCTACGACGGGATT
B31: CGCCAGU (DNA:RNA)
RNA: B14 RNA with A25C, C26G, U27C, A28C, U29A, U30G
DNA 1: CAATCTGAATTCCGGTCTCCC
DNA 2: TGGTGGCTACGACGGGATT

Each binder was assayed against T1, RBFOX1 RRM RbFoxmut (Fox-RRM*) (assay: EMSA; HiTS-Eq, 1 nM pool, 10 min; buffer printed only for the single-RNA assays: 10 mM Tris pH 7.5, 150 mM NaCl, 3.4 mM EDTA, 0.001% NP-40, 30 C). Settings: tags: His6 N-terminal (pET28a); label: 5' 32P.
Summary of the method: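 These values rest on relative association constants, computed from read-count changes of each RNA species versus the control reaction and normalised to the cognate motif. Reads came from free RNA recovered by 8% native PAGE after purified RbFox RRM (wild type or mutant) at increasing concentrations was equilibrated for 10 min in 50 µL with 1 nM of a 5′-radiolabelled pool with 7 randomized nucleotides and DNA-annealed flanks.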

Binder	binding signal
B1	0.139 KA relative to UGCAUGU
B2	0.0764 KA relative to UGCAUGU
B3	0.566 KA relative to UGCAUGU
B4	0.107 KA relative to UGCAUGU
B5	0.103 KA relative to UGCAUGU
B6	0.0749 KA relative to UGCAUGU
B7	0.139 KA relative to UGCAUGU
B8	0.127 KA relative to UGCAUGU
B9	0.0734 KA relative to UGCAUGU
B10	0.0666 KA relative to UGCAUGU
B11	0.137 KA relative to UGCAUGU
B12	0.121 KA relative to UGCAUGU
B13	0.229 KA relative to UGCAUGU
B14	0.123 KA relative to UGCAUGU
B15	0.114 KA relative to UGCAUGU
B16	0.104 KA relative to UGCAUGU

Binder	binding signal
B17	0.0539 KA relative to UGCAUGU
B18	0.104 KA relative to UGCAUGU
B19	0.0723 KA relative to UGCAUGU
B20	0.0986 KA relative to UGCAUGU
B21	0.402 KA relative to UGCAUGU
B22	0.0819 KA relative to UGCAUGU
B23	0.0924 KA relative to UGCAUGU
B24	0.0963 KA relative to UGCAUGU
B25	0.0491 KA relative to UGCAUGU
B26	0.0546 KA relative to UGCAUGU
B27	0.158 KA relative to UGCAUGU
B28	0.141 KA relative to UGCAUGU
B29	0.0923 KA relative to UGCAUGU
B30	0.099 KA relative to UGCAUGU
B31	0.0925 KA relative to UGCAUGU

Reference: PMC9911399, “Two distinct binding modes provide the RNA-binding protein RbFox with extraordinary sequence specificity”
